Results as given in paper PMC4336329 (PLoS ONE, 2015).
In all, about 310,000 compounds went through this assay and about 14,000 (4.5%) showed an effect of 50% or more. The effect is printed as a negative number. This is one part of the list.

Target: human ether-à-go-go-related gene (hERG) potassium channel (human, UniProt Q12809)
Assay: primary screen, population patch clamp on CHO cells stably expressing hERG
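Note: peak tail current of the secondary pulse compared with the same well before compound.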

Chain of human ether-à-go-go-related gene (hERG) potassium channel (Q12809 whole entry, looked up): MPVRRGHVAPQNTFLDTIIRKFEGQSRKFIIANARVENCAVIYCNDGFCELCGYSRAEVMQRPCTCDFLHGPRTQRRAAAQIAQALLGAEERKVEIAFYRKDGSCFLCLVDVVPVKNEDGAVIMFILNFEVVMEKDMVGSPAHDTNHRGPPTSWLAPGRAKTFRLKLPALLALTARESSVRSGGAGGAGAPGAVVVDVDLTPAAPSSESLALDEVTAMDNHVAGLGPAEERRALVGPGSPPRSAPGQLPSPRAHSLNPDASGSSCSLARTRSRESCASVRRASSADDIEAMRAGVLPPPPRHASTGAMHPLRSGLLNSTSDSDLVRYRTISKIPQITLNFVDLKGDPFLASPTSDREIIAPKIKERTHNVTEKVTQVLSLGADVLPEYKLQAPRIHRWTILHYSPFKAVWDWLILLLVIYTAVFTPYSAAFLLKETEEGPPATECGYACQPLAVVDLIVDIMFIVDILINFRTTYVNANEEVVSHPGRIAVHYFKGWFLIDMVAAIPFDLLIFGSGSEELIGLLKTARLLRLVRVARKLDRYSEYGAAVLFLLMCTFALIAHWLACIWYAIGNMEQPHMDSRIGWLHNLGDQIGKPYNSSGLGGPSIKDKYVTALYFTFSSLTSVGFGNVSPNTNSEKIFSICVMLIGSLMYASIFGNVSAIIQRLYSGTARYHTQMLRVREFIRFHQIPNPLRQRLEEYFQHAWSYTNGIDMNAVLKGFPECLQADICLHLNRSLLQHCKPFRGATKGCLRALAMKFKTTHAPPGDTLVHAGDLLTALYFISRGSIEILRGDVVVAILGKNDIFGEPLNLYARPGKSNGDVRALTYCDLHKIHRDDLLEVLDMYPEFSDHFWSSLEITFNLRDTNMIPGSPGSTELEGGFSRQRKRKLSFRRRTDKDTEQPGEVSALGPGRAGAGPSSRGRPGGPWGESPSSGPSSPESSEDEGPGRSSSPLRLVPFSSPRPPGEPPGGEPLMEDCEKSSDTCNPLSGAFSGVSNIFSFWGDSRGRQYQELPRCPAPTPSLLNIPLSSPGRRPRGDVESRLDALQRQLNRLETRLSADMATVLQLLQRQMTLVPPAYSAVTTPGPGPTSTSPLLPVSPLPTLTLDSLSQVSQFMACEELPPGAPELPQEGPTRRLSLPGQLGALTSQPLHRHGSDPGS

Compound	hERG current change (%, negative = inhibition) at 10uM [%]
C[n+]1ccc(/C=C/c2c[nH]c3ccc(F)cc23)cc1.[I-]	-18.5
Cc1c(N(C(=O)c2ccccn2)C2(C(=O)NC3CCCCC3)CCCCC2)c(=O)n(-c2ccccc2)n1C	-23.1
O=c1cc(-c2ccccc2Cl)oc2c(NS(=O)(=O)c3ccccc3OC(F)(F)F)ccc(O)c12	0.267
CCOC(=O)c1c(NC(=O)C2CC(Cl)=CCC2C(=O)O)sc2c1CC(C)(C)OC2 (stereo not drawn)	29.2
Oc1c(C(Nc2ccccn2)c2ccccn2)ccc2cccnc12 (stereo not drawn)	-36.8
CCc1ccc(Nc2ncccc2C#N)cc1	0.479
Cn1c(=O)c2c(nc(CN3CCN(c4ccccc4)CC3)n2CCCc2ccccc2)n(C)c1=O	-32.7
CC1(C)CC(=O)C2=C(C1)OC(N)=C(C#N)C2c1ccc[nH]1 (stereo not drawn)	11.7
CC(C)NC(=O)COc1ccccc1C#N	10.8
O=C(Nc1ccc2sccc2c1)c1ccc(Cl)s1	10
O=C(CCc1nc2cccnc2n1Cc1ccccc1)NCCc1ccc(Cl)cc1	-78.6
O=C(NCC(O)c1ccccc1)c1ccccc1 (stereo not drawn)	14.7
O=C(OCC(=O)N(CCc1ccccc1)Cc1ccccc1)c1ccccc1NCCO	-0.338
O=C(Cc1cccs1)Nc1ccc(-c2nc3ccccc3[nH]2)cc1	4.9
NS(=O)(=O)OCC1CCCCC1	21.2
O=C(Nc1ccc(OC(=O)c2cccnc2)cc1)c1cccnc1	4.18
Clc1ncnc2scc(-c3ccc(Br)cc3)c12	7.97
O=C(CCc1nnc2ccc(NCc3ccco3)nn12)Nc1cc(F)ccc1F	-23.2
CC(SC#N)C(=O)C12CC3CC(CC(C3)C1)C2 (stereo not drawn)	-8.99
O=C(CN1CCN(c2ccc(Cl)cc2)CC1)c1ccc2c(c1)OCO2	-16.7

Compound	hERG current change (%, negative = inhibition) at 10uM [%]
c1ccc(N2CCN(Cc3ccsc3)CC2)nc1	-18.1
CCNC(=O)CC1C(=O)N(c2ccc(C)cc2)C(=O)N1CCOC (stereo not drawn)	32.3
O=C(CS(=O)(=O)c1ccccc1)Nc1ccccn1	40.8
CCOC(=O)C1CCN(C(=O)c2ccccc2NC(C)=O)CC1	10.4
COc1ccc(/C=C/C(=O)NC(C)CCc2ccccc2)cc1 (stereo not drawn)	-17
Cn1c(CSCc2ccc(Cl)cc2)n[nH]c1=S	11
O=C(NC1CCS(=O)(=O)C1)c1cccnc1 (stereo not drawn)	7.85
O=C(c1cccs1)N(c1ccc(F)cc1)C1C=CS(=O)(=O)C1 (stereo not drawn)	2.79
COc1ccccc1C(=O)NC(CCSC)C(=O)NNC(=O)C(C)Oc1ccccc1F (stereo not drawn)	0.592
CCOC(=O)c1sc(=NC(=O)c2cccc(C)c2)n(C)c1C	8.38
O=C(Nc1ccc(-c2csnn2)cc1)C1CC1	-1.71
O=C(Nc1ccc(N2CCCCCC2)cc1)c1cccc(S(=O)(=O)N2CCOCC2)c1	-18
COc1ccccc1NC(=O)Nc1nc(CC(=O)N2CCN(c3ccccc3F)CC2)cs1	17
O=C(c1cccs1)N1CCn2c1nc1ccccc12	-25.5
CC(NC(=O)c1cc(-c2ccccc2)on1)c1ccccc1 (stereo not drawn)	6.57
c1ccc(N2CCCCC2)c(Nc2nc3ccccc3n3cnnc23)c1	9.33
CCOc1ccc(-c2nc(CSCC(=O)NC3CC3)c(C)o2)cc1	12.8
COc1ccc(NC(=O)CSc2nc3nc(C)cc(C)n3n2)cc1	-11.2
COc1cc(C(=O)Nc2ccccc2N2CCOCC2)ccc1OCC(=O)N1CCOCC1	7.84
Cc1[nH]nc2c1C(c1cnn(C)c1)C(C#N)=C(N)O2 (stereo not drawn)	-7.8

Compound	hERG current change (%, negative = inhibition) at 10uM [%]
COc1ccc(SCCN2CC[C@@H](C(C)(C)C)CCC2=O)cc1	-25.7
O=C(COc1ncnc2scc(-c3ccccc3)c12)NCCN1C(=O)CSC1=O	2.57
CCOC(=O)C1CCCN(C(=O)c2cccs2)C1 (stereo not drawn)	17.3
O=C(Nc1ccccc1)c1ccccc1N=Cc1cccc(O)c1	18.8
c1cc(CNCCCN2CCOCC2)ccn1	9.09
O=C(COC(=O)c1ccccc1)c1ccc(Br)cc1	18
CCOC(=O)C1(CCOc2ccccc2)CCN(C2Cc3ccccc3C2)CC1	-53.4
O=C(NCc1cccs1)c1cc(-c2ccccc2)nn1CC1CC(c2cccnc2)=NO1 (stereo not drawn)	-51.8
CC1=C(C(=O)OC(C)C)C(c2cccs2)NC(=O)N1 (stereo not drawn)	19
CC(CC(=O)N1CCc2ccccc21)c1ccccc1 (stereo not drawn)	-27.3
CC(C(=O)Nc1sc2c(c1C(=O)NCC1CCCO1)CCC2)N1C(=O)c2ccccc2C1=O (stereo not drawn)	-14.1
COC(=O)c1ccc(C(=O)OC)c(NC(=S)N2CCCC(CO)C2)c1 (stereo not drawn)	6.27
CC(NS(C)(=O)=O)C(c1cccs1)N1CCN(c2ccccc2)CC1 (stereo not drawn)	-12.7
COc1ccc(NC(=O)COC(=O)c2ccccc2SCC(=O)N2CCCC2)cc1	-53.9
CCOc1ccc(NC(=O)c2nccnc2CO)cc1	-10.2
Cc1nnc(SCc2nnc(-c3cccs3)o2)n1C1CCCCC1	11.5
COc1ccccc1/C=C1\SC(=O)N(CCC(=O)NNC(=O)c2ccccc2Cl)C1=O	8.9
Cc1cccnc1NC(=O)c1ccc(S(=O)(=O)N2CCCCCC2)cc1	2.68
C=CCNC(=O)c1ccccc1NC(=O)c1ccccc1C	-1.68
CCOC(=O)c1ccccc1C(=O)OCC	0.0515
